Publication PMC9226319, “Peripherally restricted transthyretin-based delivery system for probes and therapeutics avoiding opioid-related side effects” (Nature Communications, 2022)

Columns and labels:
[1] = system: Hep3B cell line; settings: for % Cell viability: Hep3B cell line MTT assay, replicates
[2] = in vitro; settings: human, % Cell viability, Hep3B cell line MTT assay, replicates

Row | SMILES | cytotoxicity, Hep3B ([1]; 10 and 100 µM, 72 h, MTT) | % Cell viability ([1]; 10 μM) | viability at 72 h, 10 µM ([2]; 10 μM) | viability at 72 h, 100 µM ([2]; 100 μM) | % Cell viability ([1]; 100 μM) | % Cell viability ([1]; 1 μM)
1 | C=CCN1CC[C@]23c4c5ccc(O)c4O[C@H]2[C@@H](OCCOCCOCCOCCOCCOCCOCCOC)CC[C@@]3(O)[C@H]1C5 [Naloxegol, reference compound] | no cytotoxicity | 100% | – | – | – | –
2 | C=CCN1CC[C@]23c4c5ccc(O)c4O[C@H]2[C@@H](OCc2cn(CCNCCCCCCOc4cc(OCCCc6c(C)n[nH]c6C)cc(C(=O)O)c4)nn2)CC[C@@]3(O)[C@H]1C5 [AG10-L2-Nal] | – | 103% | 107% | 104% | 109% and 106% | –
3 | COc1cccc2c1C(=O)c1c(O)c3c(c(O)c1C2=O)C[C@@](O)(C(=O)CO)C[C@@H]3O[C@H]1C[C@H](N)[C@H](O)[C@H](C)O1 [DOX] | – | – | – | – | – | 64% and 62%

Several values for one entry are separate records, joined by “and”; a condition that tells them apart may be missing. Equal entries are not always repeated. Where two headings read alike, the source gives them in different places.
